Experimental data from the BET-seq Pho4 binding data (Le et al. 2018).
The list shows a part of the results. The energies were worked out here from pooled read counts, against the library average; single values are noisy.

Each sequence was assayed against T1, Pho4 (S. cerevisiae) (UniProt P07270) (assay: relative binding free energy (BET-seq); higher = weaker binding). Conditions: reference: library average.
T1 sequence: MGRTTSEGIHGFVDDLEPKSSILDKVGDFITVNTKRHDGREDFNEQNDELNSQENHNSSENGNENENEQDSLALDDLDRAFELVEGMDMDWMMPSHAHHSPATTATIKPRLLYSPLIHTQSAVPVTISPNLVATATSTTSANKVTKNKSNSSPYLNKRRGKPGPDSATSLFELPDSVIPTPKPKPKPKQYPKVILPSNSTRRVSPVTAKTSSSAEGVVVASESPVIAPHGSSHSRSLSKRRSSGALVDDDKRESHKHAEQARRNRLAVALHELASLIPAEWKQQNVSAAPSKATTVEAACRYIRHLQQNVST
TCAATCACGTGGATTT was tested, and the “relative binding free energy” value was 0.22 kcal/mol.
TGGTGCACGTGGGAGA was tested, and the “relative binding free energy” value was -0.17 kcal/mol.
With TAAGACACGTGGTTAG the “relative binding free energy” value was 0.02 kcal/mol.
With GGTCTCACGTGTTATA the “relative binding free energy” value was 0.22 kcal/mol.
CTTGACACGTGGGGGA was tested, and the “relative binding free energy” value was -0.15 kcal/mol.
TGCTTCACGTGAGGTC was tested, and the “relative binding free energy” value was 0.38 kcal/mol.
In the case of GTGAGCACGTGATAGG, the “relative binding free energy” value is reported as -0.03 kcal/mol.
In the case of ATGGGCACGTGCCTGG, the “relative binding free energy” value is reported as -0.29 kcal/mol.
With AGTAGCACGTGTAGCT the “relative binding free energy” value was -0.1 kcal/mol.
AACGACACGTGGGTTT was tested, and the “relative binding free energy” value was 0.04 kcal/mol.
With TAGGTCACGTGTACGT the “relative binding free energy” value was 0.15 kcal/mol.
In the case of GGGTTCACGTGCTGAG, the “relative binding free energy” value is reported as 0.28 kcal/mol.
For TTATTCACGTGGTTCA, the “relative binding free energy” value was 0.08 kcal/mol.
TGTCGCACGTGTGGGA was tested, and the “relative binding free energy” value was 0.01 kcal/mol.
For TTTGTCACGTGTGTTG, the “relative binding free energy” value was 0.2 kcal/mol.
For AGGTGCACGTGTCATG, the “relative binding free energy” value was -0.09 kcal/mol.
For GGTCCCACGTGTTGGT, the “relative binding free energy” value was -0.02 kcal/mol.
With GTTGGCACGTGAGGGA the “relative binding free energy” value was 0.21 kcal/mol.
For GGAGACACGTGACGGT, the “relative binding free energy” value was 0.09 kcal/mol.
ATTTGCACGTGATTTC was tested, and the “relative binding free energy” value was 0.18 kcal/mol.
For TAGGTCACGTGGTGAC, the “relative binding free energy” value was 0.04 kcal/mol.
For TTCTACACGTGGGTAA, the “relative binding free energy” value was 0.12 kcal/mol.
In the case of AGTTTCACGTGCGTGT, the “relative binding free energy” value is reported as 0.17 kcal/mol.
With AGTTCCACGTGATGGT the “relative binding free energy” value was 0.22 kcal/mol.
For TTAGACACGTGGCAGT, the “relative binding free energy” value was -0.05 kcal/mol.
GGTTCCACGTGTTTTA was tested, and the “relative binding free energy” value was 0.14 kcal/mol.
GCGGACACGTGTGGGG was tested, and the “relative binding free energy” value was 0.23 kcal/mol.
For GATAACACGTGTTTTG, the “relative binding free energy” value was -0.12 kcal/mol.
TTGTACACGTGTTCGA was tested, and the “relative binding free energy” value was -0.1 kcal/mol.
With TTTTACACGTGGCGCG the “relative binding free energy” value was 0.12 kcal/mol.
In the case of TAAGTCACGTGTAGTG, the “relative binding free energy” value is reported as -0.06 kcal/mol.
In the case of ATAGTCACGTGGGTTA, the “relative binding free energy” value is reported as -0.03 kcal/mol.
For TCGATCACGTGAGTGT, the “relative binding free energy” value was 0.35 kcal/mol.
In the case of GTCAGCACGTGTATGG, the “relative binding free energy” value is reported as -0.03 kcal/mol.
With GGGGTCACGTGGCAGG the “relative binding free energy” value was 0.1 kcal/mol.
In the case of GGTCGCACGTGGTACG, the “relative binding free energy” value is reported as -0.08 kcal/mol.
In the case of TATCTCACGTGGTGTA, the “relative binding free energy” value is reported as 0.15 kcal/mol.
AGGGGCACGTGTATTC was tested, and the “relative binding free energy” value was 0 kcal/mol.
With TGTGCCACGTGGTAAA the “relative binding free energy” value was 0.08 kcal/mol.
With AACGGCACGTGGGGCA the “relative binding free energy” value was -0.11 kcal/mol.
TAGGACACGTGGATGG was tested, and the “relative binding free energy” value was -0.01 kcal/mol.
With GGGTACACGTGAGGGA the “relative binding free energy” value was 0.3 kcal/mol.
ATGTGCACGTGGGTGA was tested, and the “relative binding free energy” value was -0.08 kcal/mol.
With TGAAGCACGTGAGGGG the “relative binding free energy” value was 0.23 kcal/mol.
In the case of AGGGGCACGTGGTACG, the “relative binding free energy” value is reported as -0.16 kcal/mol.
With GTTAGCACGTGAGGGC the “relative binding free energy” value was 0.26 kcal/mol.
In the case of AGAAGCACGTGGTGTA, the “relative binding free energy” value is reported as -0.24 kcal/mol.
TCGCGCACGTGGTGTT was tested, and the “relative binding free energy” value was -0.14 kcal/mol.
In the case of CAGTGCACGTGTGATT, the “relative binding free energy” value is reported as 0.03 kcal/mol.
GTAGGCACGTGCGGCG was tested, and the “relative binding free energy” value was -0.13 kcal/mol.
In the case of TTGTTCACGTGGGTAA, the “relative binding free energy” value is reported as 0.14 kcal/mol.
For CGTGCCACGTGGGTTA, the “relative binding free energy” value was -0.25 kcal/mol.
With TTGGACACGTGTTTGA the “relative binding free energy” value was 0.04 kcal/mol.
For CTAGTCACGTGGGATG, the “relative binding free energy” value was -0.12 kcal/mol.
CGGATCACGTGTGTAT was tested, and the “relative binding free energy” value was 0.21 kcal/mol.
With GTCGGCACGTGAAGTT the “relative binding free energy” value was 0.3 kcal/mol.
For AGCGGCACGTGCGAGT, the “relative binding free energy” value was -0.07 kcal/mol.
In the case of GGTCGCACGTGTTGTC, the “relative binding free energy” value is reported as 0.04 kcal/mol.
GTCGTCACGTGATTAT was tested, and the “relative binding free energy” value was 0.32 kcal/mol.
With CAATGCACGTGGTGAG the “relative binding free energy” value was -0.12 kcal/mol.
For GGTCGCACGTGTAGTA, the “relative binding free energy” value was -0.06 kcal/mol.
GTTAGCACGTGTGAAT was tested, and the “relative binding free energy” value was 0.06 kcal/mol.
In the case of GTAGCCACGTGGTGTG, the “relative binding free energy” value is reported as -0.27 kcal/mol.
In the case of TTACGCACGTGGGCTG, the “relative binding free energy” value is reported as -0.18 kcal/mol.
For TTCTACACGTGGAGGT, the “relative binding free energy” value was 0.04 kcal/mol.
With TCAGGCACGTGGAGGT the “relative binding free energy” value was -0.22 kcal/mol.
In the case of TGTCTCACGTGAGGCT, the “relative binding free energy” value is reported as 0.25 kcal/mol.
In the case of AGGACCACGTGTTTGG, the “relative binding free energy” value is reported as -0.07 kcal/mol.
GTGACCACGTGGTTGG was tested, and the “relative binding free energy” value was 0.01 kcal/mol.
GTTATCACGTGGATAG was tested, and the “relative binding free energy” value was 0.15 kcal/mol.
GAGGACACGTGTAGGT was tested, and the “relative binding free energy” value was 0.02 kcal/mol.
For GACTGCACGTGGTAGG, the “relative binding free energy” value was -0.02 kcal/mol.
In the case of TTGGGCACGTGTAAAG, the “relative binding free energy” value is reported as 0.16 kcal/mol.
GTACGCACGTGTATTG was tested, and the “relative binding free energy” value was 0.04 kcal/mol.
With AGATACACGTGTGTAG the “relative binding free energy” value was 0.04 kcal/mol.
For GCCGTCACGTGGGTTT, the “relative binding free energy” value was -0.01 kcal/mol.
In the case of GAGTTCACGTGGTGTA, the “relative binding free energy” value is reported as 0.18 kcal/mol.
TGGAGCACGTGTGCTT was tested, and the “relative binding free energy” value was -0.09 kcal/mol.
CGTTGCACGTGGCGTG was tested, and the “relative binding free energy” value was 0.03 kcal/mol.
With GGGGTCACGTGGTCTC the “relative binding free energy” value was 0.16 kcal/mol.
For ATGTGCACGTGCCGGG, the “relative binding free energy” value was -0.01 kcal/mol.
AGCTGCACGTGGTAGC was tested, and the “relative binding free energy” value was 0.11 kcal/mol.
For TTGGTCACGTGGTGAG, the “relative binding free energy” value was 0.13 kcal/mol.
In the case of GTAGGCACGTGTTATG, the “relative binding free energy” value is reported as -0.12 kcal/mol.
For TGAAACACGTGGTTAT, the “relative binding free energy” value was -0.02 kcal/mol.
CGTTACACGTGGGGAA was tested, and the “relative binding free energy” value was 0.02 kcal/mol.
TTGGGCACGTGAGTTC was tested, and the “relative binding free energy” value was 0.21 kcal/mol.
With AAGTCCACGTGGCGGG the “relative binding free energy” value was 0.06 kcal/mol.
With AAGGGCACGTGGGCGC the “relative binding free energy” value was -0.22 kcal/mol.
For TCGTGCACGTGGTGCA, the “relative binding free energy” value was -0.12 kcal/mol.
For ATGAACACGTGTGTTG, the “relative binding free energy” value was -0.04 kcal/mol.
With GTACGCACGTGTGTAT the “relative binding free energy” value was 0.08 kcal/mol.
For TGTGGCACGTGTCAGC, the “relative binding free energy” value was -0.1 kcal/mol.
With TTCGACACGTGGATTG the “relative binding free energy” value was 0.13 kcal/mol.
With CTTATCACGTGTATGG the “relative binding free energy” value was 0.05 kcal/mol.
For TGAAGCACGTGGTCTA, the “relative binding free energy” value was -0.07 kcal/mol.
In the case of CGCTGCACGTGAGGTT, the “relative binding free energy” value is reported as 0.18 kcal/mol.
GGCGACACGTGTAGTG was tested, and the “relative binding free energy” value was 0.13 kcal/mol.
In the case of GTGAACACGTGGTGGC, the “relative binding free energy” value is reported as 0.06 kcal/mol.
With TGCAGCACGTGGAAGG the “relative binding free energy” value was -0.13 kcal/mol.
For GGATTCACGTGTGCCG, the “relative binding free energy” value was 0.37 kcal/mol.
TTTGTCACGTGGGATG was tested, and the “relative binding free energy” value was -0.05 kcal/mol.
TCGTACACGTGGGTGC was tested, and the “relative binding free energy” value was -0.08 kcal/mol.
With ATGGGCACGTGCATTG the “relative binding free energy” value was -0.18 kcal/mol.
In the case of GTAGTCACGTGAGTTT, the “relative binding free energy” value is reported as 0.3 kcal/mol.
GATGTCACGTGGCCTG was tested, and the “relative binding free energy” value was 0.05 kcal/mol.
With TTACACACGTGGTGGG the “relative binding free energy” value was 0.12 kcal/mol.
For ATCGTCACGTGTGGAG, the “relative binding free energy” value was 0.23 kcal/mol.
For GGGGGCACGTGCTTAG, the “relative binding free energy” value was -0.01 kcal/mol.
With TATAACACGTGGTCGT the “relative binding free energy” value was -0.21 kcal/mol.
For GAGGGCACGTGAAGAA, the “relative binding free energy” value was 0.21 kcal/mol.
CGTAGCACGTGGTGCA was tested, and the “relative binding free energy” value was -0.11 kcal/mol.
GTTCACACGTGAATGT was tested, and the “relative binding free energy” value was 0.32 kcal/mol.
TTTGTCACGTGAGGAG was tested, and the “relative binding free energy” value was 0.35 kcal/mol.
CTCGGCACGTGGGGTG was tested, and the “relative binding free energy” value was -0.32 kcal/mol.
